Hit rate of the full screen: of about 310,000 compounds, about 14,000 (4.5%) showed an effect of 50% or more. The effect is printed as a negative number. This is one part of the list.
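Further: peak tail current of the secondary pulse compared with the same well before compound.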

The target in this assay is human ether-à-go-go-related gene (hERG) potassium channel (human, UniProt Q12809). The assay is described as follows: primary screen, population patch clamp on CHO cells stably expressing hERG.
Chain of human ether-à-go-go-related gene (hERG) potassium channel (Q12809 whole entry, looked up): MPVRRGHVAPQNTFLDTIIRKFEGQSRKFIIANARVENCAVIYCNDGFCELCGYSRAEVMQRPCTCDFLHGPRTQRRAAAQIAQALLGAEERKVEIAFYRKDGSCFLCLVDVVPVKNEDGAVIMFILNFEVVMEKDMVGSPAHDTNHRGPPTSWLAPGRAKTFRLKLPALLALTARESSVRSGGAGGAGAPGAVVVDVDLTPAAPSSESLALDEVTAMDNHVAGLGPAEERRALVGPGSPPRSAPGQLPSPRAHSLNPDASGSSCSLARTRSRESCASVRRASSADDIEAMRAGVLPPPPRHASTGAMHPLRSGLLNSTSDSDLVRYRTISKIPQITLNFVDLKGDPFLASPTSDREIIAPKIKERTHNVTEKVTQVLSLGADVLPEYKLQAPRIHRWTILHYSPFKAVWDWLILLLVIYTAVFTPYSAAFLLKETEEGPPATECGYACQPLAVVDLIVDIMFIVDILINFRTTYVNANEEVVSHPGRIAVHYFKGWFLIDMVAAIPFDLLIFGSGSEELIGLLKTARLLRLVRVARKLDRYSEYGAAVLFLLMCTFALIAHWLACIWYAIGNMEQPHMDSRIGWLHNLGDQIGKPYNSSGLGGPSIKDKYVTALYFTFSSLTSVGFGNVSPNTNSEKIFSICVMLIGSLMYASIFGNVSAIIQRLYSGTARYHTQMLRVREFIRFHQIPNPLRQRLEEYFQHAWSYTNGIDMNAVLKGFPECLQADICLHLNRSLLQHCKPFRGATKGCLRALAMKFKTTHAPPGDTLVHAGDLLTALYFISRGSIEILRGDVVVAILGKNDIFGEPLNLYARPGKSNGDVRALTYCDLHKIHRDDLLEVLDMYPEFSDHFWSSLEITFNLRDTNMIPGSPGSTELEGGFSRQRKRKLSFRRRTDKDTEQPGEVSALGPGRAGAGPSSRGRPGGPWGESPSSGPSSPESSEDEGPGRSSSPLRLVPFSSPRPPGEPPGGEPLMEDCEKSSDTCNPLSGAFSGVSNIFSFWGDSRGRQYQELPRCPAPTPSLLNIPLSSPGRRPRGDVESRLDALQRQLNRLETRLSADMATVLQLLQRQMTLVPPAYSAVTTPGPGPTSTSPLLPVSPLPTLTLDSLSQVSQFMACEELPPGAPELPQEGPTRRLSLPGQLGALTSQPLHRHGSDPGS
On to `O=C(CCc1ccccc1)NNC(=O)Cc1ccccc1`, for which the “hERG current change (%, negative = inhibition) at 10uM” value was determined as 33.2%.
Then `CC(C(=O)Nc1ccc(F)c(F)c1F)N(C)Cc1cccs1` (stereo not drawn), with -1.07%; and `CC(C)OCc1c(C(=O)Nc2nccs2)oc2ccccc12`, with 10.5%.
For the compound `COc1ccc(C(=O)OCC(=O)NC(=O)CCSc2ccccc2)cc1`, the “hERG current change (%, negative = inhibition) at 10uM” value came to 3.23%.
In the case of `CC(NS(=O)(=O)c1cccc(S(=O)(=O)c2ccccc2)c1)C(=O)O` (stereo not drawn), the “hERG current change (%, negative = inhibition) at 10uM” value was 4.32%.
Then `CCOC(=O)C1=C(CN2CCN(C(=O)c3ccco3)CC2)NC(=O)NC1c1ccc(OC(C)C)cc1` (stereo not drawn), with -69.3%; and `O=C(O)C(Cc1ccc(O)cc1)N1C(=O)C2CCCCC2C1=O` (stereo not drawn), with 36.8%.
Consider `Cc1cc(CNC(=O)C2CCC(=O)N(Cc3ccccc3F)C2)nn1C` (stereo not drawn), for which the “hERG current change (%, negative = inhibition) at 10uM” value came out at 6.4%.
Then `Cc1cc(C)n(-c2nc(NCc3cccnc3)c3c4c(sc3n2)COC(C)(C)C4)n1`, with -27.4%; and `O=C(c1ccoc1)N1CCCC(CO)(CCCc2ccccc2)C1` (stereo not drawn), with -16.5%.
Turning to `CCOc1nc(NCCN2CCOCC2)nc(Nc2ccc([N+](=O)[O-])cc2)n1`, the “hERG current change (%, negative = inhibition) at 10uM” value is on record as -93.1%.
Turning to `CC(C)c1nc2cc(C(=O)N3CCNC(=O)C3c3ccc(F)cc3)ccc2o1` (stereo not drawn), the “hERG current change (%, negative = inhibition) at 10uM” value was determined as 11.1%.
On to `Cc1nc2ccc(F)cc2cc1C(=O)NC(C)C`, for which the “hERG current change (%, negative = inhibition) at 10uM” value stood at 5.63%.
Consider `CC(C)CCN(C(=O)Cc1ccc(Cl)c(Cl)c1)c1c(N)n(Cc2ccccc2)c(=O)[nH]c1=O`, for which the “hERG current change (%, negative = inhibition) at 10uM” value is recorded as -0.786%.
For the compound `[O-][n+]1onc2c1CCC1N(O)C(c3ccccc3)CC21O` (stereo not drawn), the “hERG current change (%, negative = inhibition) at 10uM” value was 14.7%.
As to `COc1ccc(S(N)(=O)=O)cc1C(N)=O`, the “hERG current change (%, negative = inhibition) at 10uM” value is 2.96%.
As to `O=C1Nc2ccccc2C12OCCO2`, the “hERG current change (%, negative = inhibition) at 10uM” value worked out at 13%.
Then `N/C(=N\OC(=O)Nc1ccc(Cl)cc1)c1ncc(C(F)(F)F)cc1Cl`, with -0.246%; and `Cn1nnc2cc(C(=O)N3CCC(c4ccccc4)C3)ccc21` (stereo not drawn), with -8.23%; and `C[NH+](C)CCOC(=O)c1ccc(COc2ccccc2Br)o1.[Cl-]`, with -44%.
As for `CC1(C)Cc2cccc(OCC(=O)NCCc3ccccc3)c2O1`, the “hERG current change (%, negative = inhibition) at 10uM” value is reported as -5.13%.
Turning to `CCC(C(=O)N1CCOCC1)n1nc(C)c2sc3ccccc3c2c1=O` (stereo not drawn), the “hERG current change (%, negative = inhibition) at 10uM” value came to 29.7%.
Consider `Cc1cccn2c(=O)c3cc(C#N)c(=NC(=O)c4cccs4)n(CC(C)C)c3nc12`, for which the “hERG current change (%, negative = inhibition) at 10uM” value is -11.5%.
In the case of `Cc1cccc(NC(=O)C(CC(C)C)NC(=O)C2CCC(C)CC2)n1` (stereo not drawn) it was -17.5%; in that of `NS(=O)(=O)c1ccc(CCNC(=O)COC(=O)CN2C(=O)C3CCCCC3C2=O)cc1` (stereo not drawn), 18.4%; in that of `COc1ccc(NC(=O)c2cc(S(=O)(=O)N3CCCC3)ccc2C)cn1`, -4.2%.
With `CCCc1cc(=O)[nH]c(SCC(=O)N2CCC(C(=O)OCC)CC2)n1`, the “hERG current change (%, negative = inhibition) at 10uM” value is listed as 2.17%.
In the case of `O=C1C=C(c2cccc(CO)c2)C[C@@H](c2ccc(Cl)cc2)C1` it was -54.5%; in that of `CC(=O)Nc1ccc(SC[C@H](C)CN2CC[C@H](C(C)(C)C)CCC2=O)cc1`, 0.892%.
Consider `CC(=O)Nc1c(C)ccc(S(N)(=O)=O)c1C`, for which the “hERG current change (%, negative = inhibition) at 10uM” value worked out at 3.63%.
Then `O=C(O)c1ccccc1NCN1C(=O)C2CC=C(Cl)CC2C1=O` (stereo not drawn), with -4.67%.
In the case of `O=C(NCC(c1ccco1)N1CCCC1)c1ccccc1F` (stereo not drawn) it was 3.76%.
With `CCC(C)NC(=O)CSc1nnc(-c2ccoc2C)n1CC1CCCO1` (stereo not drawn), the “hERG current change (%, negative = inhibition) at 10uM” value was -0.273%.
Turning to `CC(=O)c1ccc(OCc2cc(C(=O)N3CC4C[C@@H]5CC3C[C@H](C4)C5)no2)cc1`, the “hERG current change (%, negative = inhibition) at 10uM” value is -23.2%.
As to `O=C(/C=C/c1cccs1)Nc1ccc(N2CCOCC2)c(S(=O)(=O)Nc2ccccc2Cl)c1`, the “hERG current change (%, negative = inhibition) at 10uM” value is 10.3%.
As for `COC(=O)c1ccc(Oc2c(C)oc3cc(OCc4cnn(-c5ccccc5)c4)ccc3c2=O)cc1`, the “hERG current change (%, negative = inhibition) at 10uM” value came to 1.08%.
For `CC(OC(=O)c1ccc(NC(=O)CC#N)cc1)C(=O)Nc1nc(-c2ccccc2)cs1` (stereo not drawn), the “hERG current change (%, negative = inhibition) at 10uM” value was -3.7%.
Consider `CCC(C)c1ccc(OCc2ccc(C(=O)OC)o2)cc1` (stereo not drawn), for which the “hERG current change (%, negative = inhibition) at 10uM” value is recorded as -12.8%.
In the case of `Cc1nn(-c2cc(N(S(C)(=O)=O)S(C)(=O)=O)c(Cl)cc2Cl)c(=O)n1C`, the “hERG current change (%, negative = inhibition) at 10uM” value is -0.411%.
Regarding `COc1ccc(CNC(=O)c2ccc(S(=O)(=O)N3CCCC3)cc2)cc1OC`, the “hERG current change (%, negative = inhibition) at 10uM” value was 12.2%.
Regarding `O=[N+]([O-])c1cc(C(F)(F)F)ccc1NN=C1CCCC1`, the “hERG current change (%, negative = inhibition) at 10uM” value is 3.42%.
For the compound `O=C(O)c1ccc(-n2ccnc2)c([N+](=O)[O-])c1`, the “hERG current change (%, negative = inhibition) at 10uM” value is reported as 32.1%.
